Assay results taken from PMC4274898.
These are yes or no findings as the source states them, for the method shown. Some results given as binding are weak or reduced against the parent protein; the word gives no strength.

T1: ARF5 (Arabidopsis thaliana) (UniProt P93024)
T1 sequence: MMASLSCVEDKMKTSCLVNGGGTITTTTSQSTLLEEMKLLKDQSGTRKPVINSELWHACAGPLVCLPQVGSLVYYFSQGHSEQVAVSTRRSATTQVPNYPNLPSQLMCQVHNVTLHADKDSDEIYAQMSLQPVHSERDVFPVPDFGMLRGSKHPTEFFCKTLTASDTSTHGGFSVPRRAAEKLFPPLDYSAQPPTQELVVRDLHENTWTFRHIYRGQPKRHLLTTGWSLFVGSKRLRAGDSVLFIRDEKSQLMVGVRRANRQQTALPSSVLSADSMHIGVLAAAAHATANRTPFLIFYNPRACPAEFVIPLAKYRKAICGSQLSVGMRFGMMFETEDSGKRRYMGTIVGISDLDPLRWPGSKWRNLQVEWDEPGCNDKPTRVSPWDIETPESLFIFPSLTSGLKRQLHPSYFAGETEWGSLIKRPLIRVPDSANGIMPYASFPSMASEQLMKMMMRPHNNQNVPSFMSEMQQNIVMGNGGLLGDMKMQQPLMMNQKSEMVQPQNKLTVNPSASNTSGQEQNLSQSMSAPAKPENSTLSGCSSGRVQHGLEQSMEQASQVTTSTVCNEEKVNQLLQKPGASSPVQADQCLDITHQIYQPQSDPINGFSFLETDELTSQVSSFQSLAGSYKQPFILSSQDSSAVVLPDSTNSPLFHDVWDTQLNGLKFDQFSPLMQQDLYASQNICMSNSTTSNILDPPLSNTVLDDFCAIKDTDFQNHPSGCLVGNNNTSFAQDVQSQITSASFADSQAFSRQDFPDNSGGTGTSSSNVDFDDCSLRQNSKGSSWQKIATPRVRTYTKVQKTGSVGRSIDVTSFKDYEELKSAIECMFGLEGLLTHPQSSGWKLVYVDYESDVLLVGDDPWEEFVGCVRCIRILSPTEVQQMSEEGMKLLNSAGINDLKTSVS

T2: ARF8 (Arabidopsis thaliana) (UniProt Q9FGV1)
T2 sequence: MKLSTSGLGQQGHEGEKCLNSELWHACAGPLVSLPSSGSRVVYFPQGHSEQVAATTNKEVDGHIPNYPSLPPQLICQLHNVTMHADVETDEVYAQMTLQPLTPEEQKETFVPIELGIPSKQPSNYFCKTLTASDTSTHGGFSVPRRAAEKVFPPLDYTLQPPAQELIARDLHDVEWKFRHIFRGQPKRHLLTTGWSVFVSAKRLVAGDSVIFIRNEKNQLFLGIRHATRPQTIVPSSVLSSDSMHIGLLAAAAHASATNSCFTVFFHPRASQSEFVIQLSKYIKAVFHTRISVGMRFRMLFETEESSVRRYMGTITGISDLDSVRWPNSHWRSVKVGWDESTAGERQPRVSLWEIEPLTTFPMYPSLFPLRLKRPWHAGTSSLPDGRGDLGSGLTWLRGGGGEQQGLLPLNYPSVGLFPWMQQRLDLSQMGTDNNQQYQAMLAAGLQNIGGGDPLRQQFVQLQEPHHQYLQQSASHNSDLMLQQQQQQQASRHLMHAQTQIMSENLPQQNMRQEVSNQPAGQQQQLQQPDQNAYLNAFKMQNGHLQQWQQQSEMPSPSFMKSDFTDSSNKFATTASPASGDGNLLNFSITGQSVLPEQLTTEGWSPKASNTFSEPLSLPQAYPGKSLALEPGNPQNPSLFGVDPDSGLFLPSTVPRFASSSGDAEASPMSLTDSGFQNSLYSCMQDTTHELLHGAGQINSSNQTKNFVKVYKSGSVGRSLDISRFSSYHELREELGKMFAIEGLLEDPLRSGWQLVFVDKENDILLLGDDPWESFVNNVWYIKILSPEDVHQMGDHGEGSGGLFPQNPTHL

T3: ARF19 (Arabidopsis thaliana) (UniProt Q8RYC8)
T3 sequence: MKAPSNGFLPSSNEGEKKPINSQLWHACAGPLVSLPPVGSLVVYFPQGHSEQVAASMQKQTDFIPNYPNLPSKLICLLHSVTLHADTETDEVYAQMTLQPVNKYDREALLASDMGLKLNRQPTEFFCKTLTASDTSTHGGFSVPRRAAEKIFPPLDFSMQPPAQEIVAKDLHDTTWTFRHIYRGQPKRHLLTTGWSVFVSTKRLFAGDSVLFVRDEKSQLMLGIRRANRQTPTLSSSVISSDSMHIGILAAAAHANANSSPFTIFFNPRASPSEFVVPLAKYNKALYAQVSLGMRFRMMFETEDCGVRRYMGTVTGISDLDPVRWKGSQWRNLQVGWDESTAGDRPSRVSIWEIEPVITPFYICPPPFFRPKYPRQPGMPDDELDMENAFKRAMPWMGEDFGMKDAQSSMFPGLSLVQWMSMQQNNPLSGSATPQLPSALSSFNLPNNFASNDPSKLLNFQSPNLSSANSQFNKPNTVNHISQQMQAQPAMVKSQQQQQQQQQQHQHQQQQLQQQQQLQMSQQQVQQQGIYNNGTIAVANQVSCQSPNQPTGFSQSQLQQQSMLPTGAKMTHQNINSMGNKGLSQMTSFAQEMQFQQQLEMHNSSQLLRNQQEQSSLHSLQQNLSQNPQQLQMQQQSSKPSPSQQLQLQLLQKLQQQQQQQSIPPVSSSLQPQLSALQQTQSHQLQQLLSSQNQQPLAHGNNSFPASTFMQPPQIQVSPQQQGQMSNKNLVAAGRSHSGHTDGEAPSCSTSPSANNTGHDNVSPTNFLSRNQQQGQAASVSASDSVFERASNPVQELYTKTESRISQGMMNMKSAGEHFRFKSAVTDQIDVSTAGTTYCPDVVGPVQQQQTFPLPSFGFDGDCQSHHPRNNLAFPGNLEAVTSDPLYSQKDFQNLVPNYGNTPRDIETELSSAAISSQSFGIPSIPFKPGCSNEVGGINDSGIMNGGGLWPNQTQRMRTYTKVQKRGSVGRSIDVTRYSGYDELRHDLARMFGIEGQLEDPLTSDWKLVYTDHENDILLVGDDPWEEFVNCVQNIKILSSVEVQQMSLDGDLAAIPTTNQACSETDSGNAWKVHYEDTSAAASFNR

B1: Aux/IAA32 (protein, UniProt Q8RYC6 1-191)
chain: MDPNTPADFFKGSSKFHTYYSQTKKGGGVIDLGLSLRTIQHETYLPPARMIGLDGYGELIDWSQPSYNSITQLKSEDTGHQRLAQGYYNNEGESRGKYAYVKVNLDGLVVGRKVCLVDQGAYATLALQLNDMFGMQTVSGLRLFQTESEFSLVYRDREGIWRNVGDVPWKEFVESVDRMRIARRNDALLPF
B2: Aux/IAA13 (protein, UniProt Q38831 1-247)
chain: MITELEMGKGESELELGLGLSLGGGTAAKIGKSGGGGAWGERGRLLTAKDFPSVGSKRAADSASHAGSSPPRSSSQVVGWPPIGSHRMNSLVNNQATKSAREEEEAGKKKVKDDEPKDVTKKVNGKVQVGFIKVNMDGVAIGRKVDLNAHSSYENLAQTLEDMFFRTNPGTVGLTSQFTKPLRLLDGSSEFVLTYEDKEGDWMLVGDVPWRMFINSVKRLRVMKTSEANGLAARNQEPNERQRKQPV
B3: Aux/IAA9 (protein, UniProt Q38827 1-338)
chain: MSPEEELQSNVSVASSSPTSNCISRNTLGGLKEHNYLGLSDCSSVGSSTLSPLAEDDKATISLKATELTLGLPGSQSPARDTELNLLSPAKLDEKPFFPLLPSKDEICSSSQKNNASGNKRGFSDTMDQFAEAKSSVYTEKNWMFPEAAATQSVTKKDVPQNIPKGQSSTTNNSSSPPAAKAQIVGWPPVRSYRKNTLATTCKNSDEVDGRPGSGALFVKVSMDGAPYLRKVDLRSYTNYGELSSALEKMFTTFTLGQCGSNGAAGKDMLSETKLKDLLNGKDYVLTYEDKDGDWMLVGDVPWEMFIDVCKKLKIMKGCDAIGLAAAPRAMEKSKMRA
B4: Aux/IAA12 (protein, UniProt Q38830 1-239)
chain: MRGVSELEVGKSNLPAESELELGLGLSLGGGAWKERGRILTAKDFPSVGSKRSAESSSHQGASPPRSSQVVGWPPIGLHRMNSLVNNQAMKAARAEEGDGEKKVVKNDELKDVSMKVNPKVQGLGFVKVNMDGVGIGRKVDMRAHSSYENLAQTLEEMFFGMTGTTCREKVKPLRLLDGSSDFVLTYEDKEGDWMLVGDVPWRMFINSVKRLRIMGTSEASGLAPRRQEQKDRQRNNPV
B5: Aux/IAA10 (protein, UniProt Q38828 1-261)
chain: MNGLQEVCSSSGSVMIGLPAEEDENAAHSSEDSSCPDESVSETELDLALGLSIGRRKVRSSLSSSSSSLTRESGTKRSADSSPAAASNATRQVAVGWPPLRTYRINSLVNQAKSLATEGGLSSGIQKETTKSVVVAAKNDDACFIKSSRTSMLVKVTMDGVIIGRKVDLNALDSYAALEKTLDLMFFQIPSPVTRSNTQGYKTIKETCTSKLLDGSSEYIITYQDKDGDWMLVGDVPWQMFLGSVTRLRIMKTSIGAGVGK
B6: Aux/IAA1 (protein, UniProt P49677 1-168)
chain: MEVTNGLNLKDTELRLGLPGAQEEQQLELSCVRSNNKRKNNDSTEESAPPPAKTQIVGWPPVRSNRKNNNNKNVSYVKVSMDGAPYLRKIDLKMYKNYPELLKALENMFKFTVGEYSEREGYKGSGFVPTYEDKDGDWMLVGDVPWDMFSSSCQKLRIMKGSEAPTAL
B7: Aux/IAA6 (protein, UniProt Q38824 1-189)
chain: MAKEGLALEITELRLGLPGDNYSEISVCGSSKKKKRVLSDMMTSSALDTENENSVVSSVEDESLPVVKSQAVGWPPVCSYRRKKNNEEASKAIGYVKVSMDGVPYMRKIDLGSSNSYINLVTVLENLFGCLGIGVAKEGKKCEYIIIYEDKDRDWMLVGDVPWQMFKESCKRLRIVKRSDATGFGLQQD
B8: Aux/IAA11 (protein, UniProt Q38829 1-246)
chain: MEGGSASGSASALSNDENLVVSCEDSSSPIGNELELGLTLSLGRKGYRDCRVYADDSSSSSSSSSLSRASVIAGIKRTADSMAATSGQVVGWPPIRTYRMNSMVNQAKASATEDPNLEISQAVNKNRSDSTKMRNSMFVKVTMDGIPIGRKIDLNAHKCYESLSNTLEEMFLKPKLGSRTLETDGHMETPVKILPDGSSGLVLTYEDKEGDWMLVGDVPWGMFIGSVRRLRIMKTSEATGKAQMIL
B9: Aux/IAA8 (protein, UniProt Q38826 1-321)
chain: MSYRLLSVDKDELVTSPCLKERNYLGLSDCSSVDSSTIPNVVGKSNLNFKATELRLGLPESQSPERETDFGLLSPRTPDEKLLFPLLPSKDNGSATTGHKNVVSGNKRGFADTWDEFSGVKGSVRPGGGINMMLSPKVKDVSKSIQEERSHAKGGLNNAPAAKAQVVGWPPIRSYRKNTMASSTSKNTDEVDGKPGLGVLFVKVSMDGAPYLRKVDLRTYTSYQQLSSALEKMFSCFTLGQCGLHGAQGRERMSEIKLKDLLHGSEFVLTYEDKDGDWMLVGDVPWEIFTETCQKLKIMKGSDSIGLAPGAVEKSKNKERV

Molecular target: T1, ARF5 (Arabidopsis thaliana)
Assay: two-hybrid; S. cerevisiae AH109 co-transformed with pGBKT7-ARF (bait) and pGADT7-Aux/IAA (prey); growth on SD/-Ade-His-Leu-Trp against SD/-Leu/-Trp; at least 10 independent colonies; serial dilutions for strength

binding, binds:
B1
B2
B3
B4
B5
B6
B7
B8
B9

Molecular target: T2, ARF8 (Arabidopsis thaliana)
Assay: as above

binding, binds:
B1
B2
B3
B4
B5
B6
B7
B8
B9

Molecular target: T3, ARF19 (Arabidopsis thaliana)
Assay: as above

binding, binds:
B1
B2
B3
B4
B5
B6
B7
B8
B9
